# Measurements: the supplement of paper PMC12632987
# Whole data set: some 2,300 sequences, median “median log2 fold change of GCK-ALFA target abundance (FLAG IP / Myc IP barcode read proportion)” near 0.095, cut for the lowest 2% near -0.47. Some of the results follow.
# B1: LC3A_free_46_2325 (protein)
# chain: YLVEIELDALHKDKETMEKFVEELEKKIKEIAEEYNAKIEIEVEIEKDEDGSYYARIKIKVEAETLEKAKEIKNKIIDSIDEIAKKYNASVLISYEIIET
# B2: LC3A_28_664 (protein)
# chain: SELDERLEEALEEAERAKALGEPTVVTITVRGDATEEEIERVIETLERIAEILAPIEGSAIIIDLDGDVPEEHRDRLIDKGEELEEKYPNVTVIFAIEEE
# B3: LC3A_28_1302 (protein)
# chain: MSIEEKLEEALKRVKEAAEKGEEVVVTVDITAEEAEENLELILEGLKRLGEEASKAPGAVIIVDLDDDVDEENRNKIIDTADEIEEKYPNVTVIIAIEDD
# B4: LC3A_28_727 (protein)
# chain: NELEKSLKEALEKAKELAEKGESDVIEITVPGDATEEDIEKLKEALEEIAEIVKDLERVDIIIDVEGGVKQEHIDKIADKAEEIEKKYPNVTVIIALDED
# B5: LC3A_28_1271 (protein)
# chain: SAIDEELARAMAAAEEAVAAGEPAVITIHVPGGATEEDIEKVIAGLEEIAEKLSSVPDQAIVIDVDSGVKQEHIDKLVDAAEEIEEKYPNVTVIIALDED
# B6: LC3A_127_200 (protein)
# chain: EKKKLLEKALELAEKALKALQKIPEEGEEAIKKAKELLKELLKLLKEIPELKESAKDVEQAIEILDKLPELSEADREEAIEHLEMIVDGVAIDIESALLK
# B7: LC3A_141_382 (protein)
# chain: MKKTFKVTFTPEEIQKLFDFMDEVEKAILEMIKESGGKPVKVKVKITAENPKTGEVKVIEEEFTVTEENVDMVVEGIAIEAASLADEIGGTVTVEVELEV
# B8: LC3A_28_756 (protein)
# chain: MDIEGIIEKAIEEAKEAKEKGEEKVIRIRVPKGATQEDIEKVIKGMEEIAEITKDMESTAILVDIEAGVKQEHIDKLIDAGEEIEKKYPNVTVIFALDED
# B9: LC3A_132_236 (protein)
# chain: QEKKLEEIEKKLEELLEEARKNIDDLEKVKKLLEEIEKLLEEAKKELSLEEFIELAEKVAKRLDELAEEAEKAGKEEVAALLENASLYADGLAIEAELEE
# B10: LC3A_free_39_2284 (protein)
# chain: MEELIEELLERIKEADPNLTEEDIKAIRELLELVSDNPELAKEIAEAIIEALRAGVDREEILKLIKKANKEMKENPEEREKIAKELIEDLRDLANLVPLD
# B11: LC3A_28_1284 (protein)
# chain: SPLDESLAAARAAAEAAAAAGEPAVITIKIPGGATQEEIEKAIATLEEIAEILKDVPDQAIVVDIDSGVEQEHIDKIADKAEEIEEKYPNVTVIIALDED
# B12: LC3A_28_665 (protein)
# chain: SALDAALAAALAEAREGLARGEPTVVTITVPGTADQAQIDRVLATLEEIAELLAPVPGSAIVIDLDGDVPQEHRDRLIDRAEELEERYPNVTVIIAEEEE
# B13: LC3A_45_1945 (protein)
# chain: MAKATVLVLVPEEKFDEALKVLREAAERISKERGIEVEIDEEAVKEAREEAKKNGEALLELTVYSDDEDTALDAAVEIADELERKLGPEVAVAIAIEEIP
# B14: LC3A_28_1332 (protein)
# chain: SHIEEQLAAAKATAQEQLAAGEDVVIEVTFTGETTLEDAEYAMEKLEEIVKEVAPKTKVSIIINVDGGVSQENIDLIAEKADEIEKKYPNATVIIALDEE
# B15: LC3A_free_26_2160 (protein)
# chain: EEFVDIYNIDKAIELLEEALKLVKEENPEAKELIELLEKAIELVKKETLESLEKALELVEKAIELVKKDKSFSEEAKEKLLKLLEEAKEHIKENIEIMKS
# B16: LC3A_free_46_2414 (protein)
# chain: WKVEVEVWTRAAPKEEIDALVEELTAGAKEIAAKHGAEVKIEVEYFKNEDGTYSALITITVTVDDEETAKKIAQELLDKIDELDEKTGLIGLISVEVIKE
# B17: LC3A_74_2069 (protein)
# chain: SLTLEEVEEAERNIAILKAALEYLSELGLISEEEKKEYEETIKKLKELLKKQGQLTEAVEGGIEVEAELIRLRLEGKVEEMKELAKEALERAKELLKKAE
# B18: LC3A_3_1836 (protein)
# chain: LEEAEAALLEELKAAGHSEETLEAVRATLEALRARGYEEAARTFIELLRENVHLPSELLLELAEEVLELVETEDLSEEELTEEIRRLFRLYRNDYEIEEL
# B19: LC3A_3_1665 (protein)
# chain: MEEEIEKALKYLKEKGKSEETLEAVEKAAKALKEKGYEETLKTFIELLKKMSHLSDEILLDFAKDVLELVKTSDLSEEEMKKKIKELATIAENEAEIEEL
# B20: LC3A_45_1932 (protein)
# chain: MYEGELDVLVPKELAEKAYEIILKKAEELEKKYGDKIKVDKEVLEKSYEESKDEEDVYFRLIIYSKDKDLVLDALDEIEDELEEELDGKVAAIISVKEVE
# B21: LC3A_28_890 (protein)
# chain: SEALESAEKALAQVKAAVAAGDQSPLVLEVKAPSNEEDVEKFIKLLEEIAKAAAALSGVTIIIDISEEVSEENKNKIIDKAEELEKKYPNVTVIIALPES
# B22: LC3A_28_825 (protein)
# chain: MEAEEIIKKLKEQAEAAKAAGEPAVIVVDINEKITEEEAKKIGEAMKEAAEKLKDLPGTAIIINLNVKQSQEVLDILMETADEIEEKYPNITVIIALPED
# B23: LC3A_3_1759 (protein)
# chain: MEEFLEEARERLRAAGADEELLEKAERALRLLLERGLEETAREFVEALLTLLAKSKELALELAEDVLRLLETSTLSPEELAEEVRSLINAALSEAEIEEL
# B24: LC3A_147_516 (protein)
# chain: YKVTVEIDLLLKNSKELAEEMAEEIKEYLESKGYEVEVELEFEEDEDGTIFAKITITVKAETKEEAEKVANEVLEKIDELLEKYKDKILGALISVSIEEE
# B25: LC3A_147_394 (protein)
# chain: YLLEITIDLIVKNAEEEIIKEIEELVEELKEKGYEVELEVKKEKLDEETTYVEITIKVRAETLEEAQAARDEILDHLDEIEEKYKDKILGSLISSEIIEE
# B26: LC3A_3_1445 (protein)
# chain: SEELKEEGLELLKERGASEETIEAAERLFDALEEKGYLEAQKLVLEWLKKVKDASDEFLLEAFEDLLELVETSDLSPEEMKKLIEEELSSFESELEIIEL
# B27: LC3A_3_1590 (protein)
# chain: MEELVKENLERLRKAGLSEEVLEAARKVLEALAERGFEEAMKVLTEELLELKDVDPEVLLAMLEEILEKVETEDLNEEEIIKEIKEEARVARLDAEIIEL
# B28: LC3A_3_1749 (protein)
# chain: MEEILEEVRKLLEEQGKSEETIEAALKLVKLLLERGFEEAVKTFIELLKESKDLPDEILLDMIKDILEYVESNDINEEEAIEKIKEEFKIAKSESEIIEL
# B29: LC3A_free_26_2150 (protein)
# chain: DEFIDIYDLDKAIELLEELLKLLEEDEEASEELKKLAKEALEEVKKETLESLEKAAELLEKLLKLLEADESLDPEKKAKLIELAKKALEHVKRNIEIMKS
# Target: MAP1LC3A, Q9H492
# Assay: median log2 fold change of GCK-ALFA target abundance (FLAG IP / Myc IP barcode read proportion) (log2 ratio); each designed protein is fused to an ALFA-tag nanobody in HEK293 cells to bring the named protein to FLAG-tagged glucokinase (GCK); Myc marks an untargeted standard; higher = target protein stabilised (more abundant)
# Settings: target protein: 3xFLAG-MCP-GCK-ALFA reporter; HEK293 landing pad (RPLP)
# How it was run: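 Binders fused to an ALFA nanobody were recombined as a library into HEK293 landing-pad cells, which were induced with 2 μg mL^−1 doxycycline and then transfected to express a FLAG-tagged target and a Myc-tagged standard. After 48 h, circular RNA barcodes recovered by anti-FLAG and anti-Myc immunoprecipitation of lysates were reverse transcribed, amplified and sequenced. Each binder's target abundance is the median log2 ratio of FLAG to Myc barcode read proportions, from barcodes present at ≥10^−7 in both replicates, binders carrying ≥3 barcodes per replicate, a 10^−6 pseudocount and pooled replicates.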
row,Binder,median log2 fold change
1,B1,-0.0876
2,B2,-0.247
3,B3,0.0116
4,B4,0.0944
5,B5,-0.33
6,B6,0.0801
7,B7,0.128
8,B8,-0.252
9,B9,-0.0956
10,B10,-0.0351
11,B11,0.013
12,B12,0.082
13,B13,0.148
14,B14,-0.0109
15,B15,0.228
16,B16,0.183
17,B17,0.214
18,B18,-0.0316
19,B19,0.103
20,B20,0.239
21,B21,-0.252
22,B22,0.0111
23,B23,0.245
24,B24,-0.0638
25,B25,-0.0114
26,B26,0.105
27,B27,0.114
28,B28,0.205
29,B29,0.344
